# Test results as given in the supplement of paper PMC9174493.
# The list shows a part of the results. Single values of this set are uncertain. Values with irradiation are relative to irradiated vehicle.
# What was measured:
# [1] = tested on: A549-Dual; test: NF-kB reporter (SEAP) activity, viability-corrected, relative to vehicle (fold change vs vehicle); higher = more activation of STING-IRF / NF-kB immune response reporter
# [2] = tested on: A549-Dual; test: ISRE reporter (Lucia luciferase) activity, viability-corrected, relative to vehicle (fold change vs vehicle); higher = more activation of STING-IRF / NF-kB immune response reporter
# 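For NF-kB reporter (SEAP) activity, viability-corrected, relative to vehicle in this document: viability correction based on the alamar blue assay, with concentrations leaving 10% survival or less dropped.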
structure (smiles),measurement,setting,value
CC(=O)NC1C(NC(=N)N)C=C(C(=O)O)OC1C(O)C(O)CO (stereo unspecified) [Zanamivir],NF-kB reporter,"[1]; 10 µM, irradiation: 8 Gy/4 fr",0.811
same,NF-kB reporter,"[1]; 10 µM, irradiation: none",0.807
same,ISRE reporter,"[2]; 10 µM, irradiation: 8 Gy/4 fr",0.797
same,ISRE reporter,"[2]; 10 µM, irradiation: none",0.862
CCC1(O)C(=O)OCc2c1cc1n(c2=O)Cc2cc3cc(O)ccc3nc2-1 (stereo unspecified) [Hydroxy Camptothecine],NF-kB reporter,"[1]; 0.1 µM, irradiation: 8 Gy/4 fr",1.1
same,NF-kB reporter,"[1]; 0.1 µM, irradiation: none",1.71
same,NF-kB reporter,"[1]; 0.3 µM, irradiation: 8 Gy/4 fr",1.14
same,NF-kB reporter,"[1]; 0.3 µM, irradiation: none",3.24
same,NF-kB reporter,"[1]; 1 µM, irradiation: 8 Gy/4 fr",1.31
same,NF-kB reporter,"[1]; 1 µM, irradiation: none",2.82
same,NF-kB reporter,"[1]; 3 µM, irradiation: none",6.36
same,NF-kB reporter,"[1]; 10 µM, irradiation: 8 Gy/4 fr",4.15
same,NF-kB reporter,"[1]; 10 µM, irradiation: none",5.62
same,ISRE reporter,"[2]; 0.1 µM, irradiation: 8 Gy/4 fr",1.09
same,ISRE reporter,"[2]; 0.1 µM, irradiation: none",7.02
same,ISRE reporter,"[2]; 0.3 µM, irradiation: 8 Gy/4 fr",1.42
same,ISRE reporter,"[2]; 0.3 µM, irradiation: none",9.56
same,ISRE reporter,"[2]; 1 µM, irradiation: 8 Gy/4 fr",1.7
same,ISRE reporter,"[2]; 1 µM, irradiation: none",7.62
same,ISRE reporter,"[2]; 3 µM, irradiation: none",16.6
same,ISRE reporter,"[2]; 10 µM, irradiation: 8 Gy/4 fr",1.95
same,ISRE reporter,"[2]; 10 µM, irradiation: none",20.9
COc1cccc2c1C(=O)c1c(O)c3c(c(O)c1C2=O)CC(O)(C(C)=O)CC3OC1CC(N)C(O)C(C)O1.Cl (stereo unspecified) [Daunorubicin HCl],NF-kB reporter,"[1]; 0.1 µM, irradiation: 8 Gy/4 fr",0.973
same,NF-kB reporter,"[1]; 0.1 µM, irradiation: none",1.71
same,NF-kB reporter,"[1]; 0.3 µM, irradiation: 8 Gy/4 fr",1.21
same,NF-kB reporter,"[1]; 0.3 µM, irradiation: none",2.48
same,NF-kB reporter,"[1]; 1 µM, irradiation: 8 Gy/4 fr",1.63
same,NF-kB reporter,"[1]; 1 µM, irradiation: none",3.36
same,NF-kB reporter,"[1]; 3 µM, irradiation: 8 Gy/4 fr",6.63
same,NF-kB reporter,"[1]; 10 µM, irradiation: 8 Gy/4 fr",5.51
same,ISRE reporter,"[2]; 0.1 µM, irradiation: 8 Gy/4 fr",0.643
same,ISRE reporter,"[2]; 0.1 µM, irradiation: none",6.11
same,ISRE reporter,"[2]; 0.3 µM, irradiation: 8 Gy/4 fr",0.957
same,ISRE reporter,"[2]; 0.3 µM, irradiation: none",5.64
same,ISRE reporter,"[2]; 1 µM, irradiation: 8 Gy/4 fr",1.04
same,ISRE reporter,"[2]; 1 µM, irradiation: none",7.99
same,ISRE reporter,"[2]; 3 µM, irradiation: 8 Gy/4 fr",0.674
same,ISRE reporter,"[2]; 10 µM, irradiation: 8 Gy/4 fr",0.842
CCC(=O)NCCC1CCc2ccc3c(c21)CCO3 (stereo unspecified) [Ramelteon],NF-kB reporter,"[1]; 10 µM, irradiation: 8 Gy/4 fr",0.68
same,NF-kB reporter,"[1]; 10 µM, irradiation: none",0.888
same,ISRE reporter,"[2]; 10 µM, irradiation: 8 Gy/4 fr",0.686
same,ISRE reporter,"[2]; 10 µM, irradiation: none",0.767
CCCCC(F)(F)C(=O)CCC1C(O)CC(=O)C1CCCCCCC(=O)O (stereo unspecified) [Lubiprostone],NF-kB reporter,"[1]; 10 µM, irradiation: 8 Gy/4 fr",0.742
same,NF-kB reporter,"[1]; 10 µM, irradiation: none",1.41
same,ISRE reporter,"[2]; 10 µM, irradiation: 8 Gy/4 fr",0.87
same,ISRE reporter,"[2]; 10 µM, irradiation: none",1.01
CC(C)CC(NC(=O)C(Cc1ccccc1)NC(=O)c1cnccn1)B(O)O (stereo unspecified) [Bortezomib (PS-341)],NF-kB reporter,"[1]; 0.1 µM, irradiation: 8 Gy/4 fr",2.75
same,NF-kB reporter,"[1]; 0.1 µM, irradiation: none",4.01
same,NF-kB reporter,"[1]; 10 µM, irradiation: none",2.86
same,ISRE reporter,"[2]; 0.1 µM, irradiation: 8 Gy/4 fr",0.285
same,ISRE reporter,"[2]; 0.1 µM, irradiation: none",1.07
same,ISRE reporter,"[2]; 10 µM, irradiation: none",0.96
CC(C)NCC(O)COc1ccc(CCOCC2CC2)cc1.Cl (stereo unspecified) [Levobetaxolol HCl],NF-kB reporter,"[1]; 10 µM, irradiation: 8 Gy/4 fr",0.782
same,NF-kB reporter,"[1]; 10 µM, irradiation: none",0.967
same,ISRE reporter,"[2]; 10 µM, irradiation: 8 Gy/4 fr",0.845
same,ISRE reporter,"[2]; 10 µM, irradiation: none",0.718
CSCC[C@H](N)C(=O)O [L-methionine],NF-kB reporter,"[1]; 10 µM, irradiation: 8 Gy/4 fr",1.21
same,NF-kB reporter,"[1]; 10 µM, irradiation: none",2.18
same,ISRE reporter,"[2]; 10 µM, irradiation: 8 Gy/4 fr",0.13
same,ISRE reporter,"[2]; 10 µM, irradiation: none",0.584
O=C(O)c1ccccc1C(=O)O [Phthalic acid],NF-kB reporter,"[1]; 10 µM, irradiation: 8 Gy/4 fr",1.21
same,NF-kB reporter,"[1]; 10 µM, irradiation: none",0.725
same,ISRE reporter,"[2]; 10 µM, irradiation: 8 Gy/4 fr",1.17
same,ISRE reporter,"[2]; 10 µM, irradiation: none",0.47
Cc1cc2c(C(N)=O)cccc2n1-c1nc2c(c(NCc3ccccc3)n1)COCC2,NF-kB reporter,"[1]; 0.1 µM, irradiation: 8 Gy/4 fr",1.04
same,NF-kB reporter,"[1]; 0.1 µM, irradiation: none",0.838
same,NF-kB reporter,"[1]; 0.3 µM, irradiation: 8 Gy/4 fr",0.403
same,NF-kB reporter,"[1]; 0.3 µM, irradiation: none",0.986
same,NF-kB reporter,"[1]; 1 µM, irradiation: 8 Gy/4 fr",0.676
same,NF-kB reporter,"[1]; 1 µM, irradiation: none",1.6
same,ISRE reporter,"[2]; 0.1 µM, irradiation: 8 Gy/4 fr",0.778
same,ISRE reporter,"[2]; 0.1 µM, irradiation: none",0.787
same,ISRE reporter,"[2]; 0.3 µM, irradiation: 8 Gy/4 fr",0.0562
same,ISRE reporter,"[2]; 0.3 µM, irradiation: none",1
same,ISRE reporter,"[2]; 1 µM, irradiation: 8 Gy/4 fr",0.149
same,ISRE reporter,"[2]; 1 µM, irradiation: none",0.441
